The results in this text go back to PubChem BioAssay AID488969 (Vanderbilt High Throughput Screening Facility, 2010).

The full ranking holds about 110,000 compounds; the median of “z-score” is about -0.1, and the highest 2% start at about 2. The list shows a part of the results. Activity calls are given as the source filed them.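 How the source made its calls: active means z-score in the third read window above 3 or below -3; inactive means the rest.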

For the assay, the target named is Metabotropic glutamate receptor 8 (Rattus norvegicus) (UniProt P70579). As to the kind of experiment: rat mGluR8 modulators via GIRK flux, primary screen, cell-based, thallium flux, HTS (AID 488969). The conditions noted are these: HEK293 rat mGluR8, GIRK (G protein-gated inwardly rectifying potassium channel) thallium flux, FluoZin2; at 10 µM; stronger effect = higher value; submaximal glutamate (EC20) added with thallium.
Sequence of UniProt P70579 (P70579 whole entry, looked up): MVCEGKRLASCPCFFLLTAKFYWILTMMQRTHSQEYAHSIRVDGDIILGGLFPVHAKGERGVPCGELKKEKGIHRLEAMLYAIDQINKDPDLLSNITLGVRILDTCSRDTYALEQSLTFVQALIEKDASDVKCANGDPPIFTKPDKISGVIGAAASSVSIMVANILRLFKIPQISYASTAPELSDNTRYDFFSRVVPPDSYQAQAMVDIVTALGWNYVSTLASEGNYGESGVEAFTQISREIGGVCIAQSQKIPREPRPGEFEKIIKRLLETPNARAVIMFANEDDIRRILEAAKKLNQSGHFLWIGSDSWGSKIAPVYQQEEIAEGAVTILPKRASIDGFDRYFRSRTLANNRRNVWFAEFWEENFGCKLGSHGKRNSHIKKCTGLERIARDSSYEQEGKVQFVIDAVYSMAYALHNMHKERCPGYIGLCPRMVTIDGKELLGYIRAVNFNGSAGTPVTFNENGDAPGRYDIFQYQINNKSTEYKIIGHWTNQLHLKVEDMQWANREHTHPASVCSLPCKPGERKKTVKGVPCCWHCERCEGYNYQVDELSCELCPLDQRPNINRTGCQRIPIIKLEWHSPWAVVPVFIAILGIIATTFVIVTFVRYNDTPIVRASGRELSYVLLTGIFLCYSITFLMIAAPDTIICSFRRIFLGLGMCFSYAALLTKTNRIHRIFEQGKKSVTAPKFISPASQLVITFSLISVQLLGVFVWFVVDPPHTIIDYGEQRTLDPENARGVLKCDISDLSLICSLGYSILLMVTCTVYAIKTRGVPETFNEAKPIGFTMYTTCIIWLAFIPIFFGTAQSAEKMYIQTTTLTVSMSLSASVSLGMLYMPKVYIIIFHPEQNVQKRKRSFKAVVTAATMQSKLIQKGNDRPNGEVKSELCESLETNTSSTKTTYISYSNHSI
Take `COc1ccc(CCNC(=O)CN2CCN(c3ccccc3Cl)CC2)cc1`: the z-score was determined as 0.132.

`O=C(COc1ccc2c(c1)CCC2)NCc1cccc(Cl)c1` came in with a z-score of -0.0943.

For `Cc1cc2c(c(SCC(=O)NCCc3ccccc3)n1)C(=O)OC2`, the z-score came to 0.0328.

`Cc1sc(=NC(=O)c2ccco2)n(C)c1-c1ccc(F)cc1`: the z-score is -0.236.

Compound `CCC1C(=O)CC(c2ccco2)NC1c1ccco1` (stereo unspecified) yielded a z-score of 0.0353.

Take `Cc1ccc(O)c(C2=NOC(O)(C(F)(F)F)C2)c1` (stereo unspecified): the z-score is -0.0776.

Compound `CCOC(=O)c1sc(NC(=O)COC(=O)CNC(=O)C2CCCCC2)c(C(=O)OCC)c1C` had a z-score of -0.218.

The compound `Cc1ccc(C)c(NC(=O)COc2cccc3c2CCN(Cc2ccccc2C)C3=O)c1` gave a z-score of -0.205.

As to `COc1ccc(/C(O)=C2/C(=O)C(=O)N(Cc3ccco3)C2c2cccs2)cc1` (stereo unspecified), the z-score amounted to 0.0398.

Take `CCN(CC)c1ccc(/C=N/Nc2ccc(C)cc2)c(O)c1`: the z-score is -0.305.

On to `CCN1C(=O)/C(=C\c2cccs2)C(C(=O)OC)=C1C`, for which the z-score stood at 0.0653.

`CCCCC(=O)Nc1cccc(-c2csc(-c3ccccc3)n2)c1` yielded a z-score of -0.569.

The compound `O=C(NCC1(c2ccccc2)CCCC1)C1(c2ccccc2)CCCC1` returned a z-score of 0.0324.

Turning to `CNC(=S)NNC(=O)c1cccn(Cc2ccc(Cl)c(Cl)c2)c1=O`, the z-score is -0.0546.

For `COCc1cc(C)nc(N2CCN(Cc3ccccc3)CC2)c1C#N`, the z-score is -0.0304.

`O=C(Cc1cccs1)Nc1ccon1` showed a z-score of 1.01.

Compound `Cc1ccc(CCN2CC(C(=O)NCCCN3CCN(C)CC3)CC2=O)cc1` (stereo unspecified) registered a z-score of -0.625.

On to `CC(=O)c1cc(C#N)c(Oc2cccc(C(F)(F)F)c2)nc1C`, for which the z-score was 0.0782.

Compound `Cc1cc(C)cc(-n2c(SC(C)C(=O)NCc3ccc4c(c3)OCO4)nc3ccccc3c2=O)c1` (stereo unspecified) displayed a z-score of -0.19.

`COc1ccccc1NC(=O)c1sc2nc(Cc3ccccc3)cc(C(F)(F)F)c2c1N` yielded a z-score of -1.01.

In turn, `CC(=O)Nc1cccc(NC(=O)C2CCCN2C(=O)Nc2ccc(C)cc2)c1` (stereo unspecified) registered a z-score of -0.128.

The compound `CC1Cc2nc(SCC(=O)NC3CCCCC3)n(C)c(=O)c2S1` (stereo unspecified) gave a z-score of -0.413.

The compound `Cc1ccccc1-n1c(C)nnc1SCC(=O)NC1CCCc2ccccc21` (stereo unspecified) yielded a z-score of -0.34.

For `CC/C(=C\C(=O)c1cccnc1)Nc1ccc(C)c(C)c1`, the z-score is -0.246.

`Cc1c(C(=O)N/N=C/C(C)C)[nH]c2c([N+](=O)[O-])cccc12` yielded a z-score of -0.722.

As for `Cc1cc2cc3c(cc2nc1SCC(=O)OC(C)C)OCCO3`, the z-score was found to be 0.0166.

For `Cc1nnc(N2CCCCC2)c2ccccc12`, the z-score is -0.014.

Consider `Cc1cc(Oc2ccc3ccccc3c2)nc(SCC(=O)c2ccccc2)n1`, for which the z-score is -0.14.

`Cc1ccc(/C=N/NC(=O)c2cccc(S(=O)(=O)Nc3ccccc3Cl)c2)s1` registered a z-score of 0.128.

The compound `Cc1cc(N2CCC(C)CC2)nc(SCC(=O)c2ccccc2)n1` gave a z-score of -0.578.

In the case of `CNC(=O)CN(C#N)c1nc(N(C)C)nc(N(C)C)n1`, the z-score was 1.02.

In turn, `O=c1c2c(n3nnnc3n1-c1ccccc1)-c1ccccc1CC21CCCC1` had a z-score of -0.0588.

As for `O=C1CC(c2ccccc2)CC(O)=C1C=NC1CCCCCC1` (stereo unspecified), the z-score was -0.211.

As for `Cn1c(SCC(=O)Nc2ccc3c(c2)oc2ccccc23)nnc1-c1ccccc1`, the z-score is -1.01.

On to `Cc1ccc(C(=O)/C=C2/NC(=O)CS2)cc1`, for which the z-score was -0.116.

Compound `CCN1C(=O)CC(C(=O)Nc2ccc(F)cc2)SC1=Nc1ccc2c(c1)OCO2` (stereo unspecified) had a z-score of 0.106.

`O=C(NCCc1c[nH]c2ccccc12)/C(=C\c1cccnc1)NC(=O)c1cccs1` returned a z-score of -0.234.

`COc1ccc(/C(O)=C2\C(=O)C(=O)N(CCN3CCOCC3)C2c2ccccc2OC)cc1` (stereo unspecified) came in with a z-score of -0.349.

Regarding `O=C(NC1CC1)c1cc(F)c(F)cc1Cl`, the z-score was 0.351.

As for `CN(C)c1nc2n(c(=O)n1)CCO2`, the z-score came out at 0.82.

Compound `C=CCc1cccc2cc(C(=O)NCc3ccc(C(=O)OCC)o3)c(=O)oc12` returned a z-score of -1.25.

For the compound `O=C(COC(=O)[C@@H]1CCCN1S(=O)(=O)c1ccc(Cl)cc1)NC12CC3CC(CC(C3)C1)C2`, the z-score was -0.226.

`CC(C)NC(=O)C(=O)NCCc1ccc(Cl)cc1` yielded a z-score of -0.166.

In turn, `O=C(c1cn(-c2ccccc2)nc1-c1ccncc1)N1CCCCC1` registered a z-score of 0.214.

In turn, `Cc1cccc(-n2nc([N+](=O)[O-])c(=NCc3cccnc3)n2O)c1` returned a z-score of -0.128.

`O=C(c1cc2ccccc2oc1=O)N(Cc1ccccc1)C1CCS(=O)(=O)C1` (stereo unspecified) gave a z-score of 0.189.

The compound `Cc1ccnc(NS(=O)(=O)c2ccc(NS(=O)(=O)Cc3ccccc3)cc2)n1` displayed a z-score of 1.04.

`Cn1c(SCC(=O)N2CCOCC2)nc(O)cc1=O` displayed a z-score of -0.116.

`Cc1cccc(C)c1-n1c(C)cc(/C=N/NC(=O)c2ccncc2)c1C` showed a z-score of 0.0638.

As for `O=c1c2ccccc2nc2n1C(CSCc1cccc(C(F)(F)F)c1)CS2` (stereo unspecified), the z-score was -0.503.

Consider `CC(=O)N1N=C(c2cccc([N+](=O)[O-])c2)OC1c1ccc(Cl)cc1Cl` (stereo unspecified), for which the z-score was -1.04.

Turning to `COc1ccc(Cl)cc1N(CC(=O)Nc1ccccc1C(=O)NCc1ccco1)S(C)(=O)=O`, the z-score is -0.101.

Compound `COc1ccc(OC)c(NC(=O)C(CC(=O)O)Cc2ccc(Cl)cc2)c1` (stereo unspecified) yielded a z-score of 0.246.

With `CC1=CCC2C(=O)N(c3ccc4ccccc4n3)C(=O)C2C1` (stereo unspecified), the z-score turned out to be 0.146.

Take `c1ccc(-c2nnc(-c3c[nH]c4ccccc34)nc2-c2ccccc2)cc1`: the z-score turned out to be 1.07.

The compound `Cc1nc2sc(C(c3cccs3)N3CCC4(CC3)OCCO4)c(O)n2n1` (stereo unspecified) showed a z-score of 0.0976.

In the case of `O=C(Nc1ccc(Cl)c(C(F)(F)F)c1)C(=O)N1CCCCC1`, the z-score came to 0.0282.

For the compound `O=C(/C=C/c1ccccc1)NCCSCc1ccccc1Cl`, the z-score is -0.358.

Turning to `CS(=O)(=O)N1CCCC(C(=O)NCCN2CCC(Cc3ccccc3)CC2)C1` (stereo unspecified), the z-score is -0.561.

Regarding `CC(C)C(=O)NC(c1ccccc1Cl)c1c(O)ccc2ccccc12` (stereo unspecified), the z-score is -0.153.

Regarding `Cn1c(NCc2ccco2)nc2c1c(=O)n(Cc1ccc(Br)cc1)c(=O)n2C`, the z-score was 0.0118.

Compound `COc1ccccc1-c1nc(NC(C)=O)n[nH]1` displayed a z-score of 0.27.

On to `O=C(Nc1ccccc1)c1[nH]ncc1[N+](=O)[O-]`, for which the z-score was -0.189.

For `COc1cc(S(=O)(=O)N2CCN=C2c2ccccc2)ccc1F`, the z-score was -0.526.

As to `CCc1nc(SCC(=O)N2CCc3cc(OC)c(OC)cc3C2)c(C#N)cc1C`, the z-score was -0.152.

In the case of `CC(C)(C)c1ccc(CN2C3=NCCCN3c3ccccc32)cc1`, the z-score is active: 4.19.

`CCC(C)NC(=O)N[C@@H](CCSC)C(=O)OC` (stereo partly specified) gave a z-score of -0.115.

Compound `CN1OC(COC(=O)c2ccc(Cl)cc2Cl)CC1c1ccccc1` (stereo unspecified) had a z-score of 0.0312.

`Cc1cc(C(=O)Nc2ccon2)cs1` yielded a z-score of 0.207.

The compound `CCOc1cc(/C=N/Nc2ncnc(Cl)c2N)ccc1O` came in with a z-score of -0.193.

`Cc1cc(=O)oc2cc(OCC(=O)N3CCCc4ccccc43)ccc12` returned a z-score of 0.88.
